Results: paper PMC5663475, “SAV1 promotes Hippo kinase activation through antagonizing the PP2A phosphatase STRIPAK” (eLife, 2017)
Residue numbers refer to the chain shown, from its start. These are yes or no findings as the source states them, for the method shown. For part of these data: Binding seen in cells or lysates may run through a third protein. Some binding calls cover weakened binding; strength is not graded here. Where a sequence is shown, tags or fusion partners need not be part of it.

Chains of the proteins cited; added tags and fusions are not shown.
UniProt Q5VSL9: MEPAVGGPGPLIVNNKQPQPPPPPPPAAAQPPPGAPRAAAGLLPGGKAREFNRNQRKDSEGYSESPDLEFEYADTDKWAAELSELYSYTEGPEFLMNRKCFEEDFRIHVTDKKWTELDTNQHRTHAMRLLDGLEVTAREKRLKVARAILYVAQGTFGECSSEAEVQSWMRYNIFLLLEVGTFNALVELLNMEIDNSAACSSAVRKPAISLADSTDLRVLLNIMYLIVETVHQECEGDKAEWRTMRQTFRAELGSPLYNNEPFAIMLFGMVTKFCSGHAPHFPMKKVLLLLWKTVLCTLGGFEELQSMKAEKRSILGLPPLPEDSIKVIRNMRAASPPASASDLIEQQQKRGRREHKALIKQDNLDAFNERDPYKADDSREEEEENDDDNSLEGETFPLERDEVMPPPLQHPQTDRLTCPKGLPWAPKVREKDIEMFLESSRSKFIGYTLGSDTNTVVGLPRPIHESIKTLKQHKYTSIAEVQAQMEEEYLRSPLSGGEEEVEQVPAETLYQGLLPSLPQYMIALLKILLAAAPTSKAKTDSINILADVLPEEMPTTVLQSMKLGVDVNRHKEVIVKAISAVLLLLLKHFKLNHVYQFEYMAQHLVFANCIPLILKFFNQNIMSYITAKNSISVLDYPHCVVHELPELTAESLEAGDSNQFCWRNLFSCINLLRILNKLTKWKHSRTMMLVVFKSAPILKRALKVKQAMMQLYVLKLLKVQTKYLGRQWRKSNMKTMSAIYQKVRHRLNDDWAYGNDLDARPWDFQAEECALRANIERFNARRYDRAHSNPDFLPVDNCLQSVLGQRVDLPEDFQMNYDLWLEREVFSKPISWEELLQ

Tests used:
HA-MST2 (human) = molecular target: T1, HA-MST2 (human) (UniProt Q13188); experiment: co-IP; anti-FLAG IP from 293FT cells co-transfected with FLAG-SLMAP and HA-MST2, with or without Myc-SAV1 overexpression
T1 sequence: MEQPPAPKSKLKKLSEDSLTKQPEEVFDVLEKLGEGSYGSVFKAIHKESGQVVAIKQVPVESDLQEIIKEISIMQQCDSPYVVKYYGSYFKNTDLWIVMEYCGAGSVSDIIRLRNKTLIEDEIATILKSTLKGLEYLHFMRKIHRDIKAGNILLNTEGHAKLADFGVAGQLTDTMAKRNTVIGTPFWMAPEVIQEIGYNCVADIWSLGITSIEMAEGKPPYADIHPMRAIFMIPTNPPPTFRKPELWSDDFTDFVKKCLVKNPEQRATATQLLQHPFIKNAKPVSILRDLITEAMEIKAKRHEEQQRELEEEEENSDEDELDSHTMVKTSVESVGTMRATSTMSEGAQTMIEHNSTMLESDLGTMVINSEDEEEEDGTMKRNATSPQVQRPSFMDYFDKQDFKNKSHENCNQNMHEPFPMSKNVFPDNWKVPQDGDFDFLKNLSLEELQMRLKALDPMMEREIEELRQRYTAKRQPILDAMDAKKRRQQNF

FLAG-MST2 T180A (human) = molecular target: T2, FLAG-MST2 T180A (human) (UniProt Q13188); experiment: co-IP; anti-FLAG IP from lysates of 293FT cells transfected with FLAG-MST2 plasmids; endogenous SLMAP detected by anti-SLMAP blot
T2 sequence: T1 sequence with T180A

FLAG-MST2 3TA (human) = molecular target: T3, FLAG-MST2 3TA (human) (UniProt Q13188); experiment: as above
T3 sequence: T1 sequence with T325A, T336A, T378A

FLAG-MST2 WT (human) = molecular target: T4, FLAG-MST2 WT (human) (UniProt Q13188); experiment: as above
T4 sequence: T1 sequence

[1] = molecular target: T5, FLAG-SAV1 1–90 fragment (human) (UniProt Q9H4B6); experiment: co-IP; anti-FLAG IP from lysates of 293FT cells (control or SLMAP KO) transfected with FLAG-SAV1 fragments; endogenous partners detected by blot
T5 sequence: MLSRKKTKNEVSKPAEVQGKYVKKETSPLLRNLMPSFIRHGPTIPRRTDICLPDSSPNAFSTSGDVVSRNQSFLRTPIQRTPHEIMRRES

[2] = molecular target: T6, GST-SLMAP FHA (residues 1–140) (human) (UniProt Q14BN4); experiment: pull-down; GST-SLMAP FHA on glutathione-Sepharose beads as bait, purified MST2 proteins in TBS (50 mM Tris pH 7.5, 150 mM NaCl) with 0.05% Tween, 2 h; Coomassie-stained gel; both purified
T6 sequence: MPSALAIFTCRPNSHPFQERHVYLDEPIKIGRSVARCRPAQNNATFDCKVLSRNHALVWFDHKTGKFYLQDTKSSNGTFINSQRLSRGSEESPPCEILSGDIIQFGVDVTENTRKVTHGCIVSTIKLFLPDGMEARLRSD

In the case of STRIP1 (from UniProt Q5VSL9 1-837), the binding (HA-MST2 (human)) is reported as “binds”.

B1: endogenous SLMAP (protein, UniProt Q14BN4 1-828)
chain: MPSALAIFTCRPNSHPFQERHVYLDEPIKIGRSVARCRPAQNNATFDCKVLSRNHALVWFDHKTGKFYLQDTKSSNGTFINSQRLSRGSEESPPCEILSGDIIQFGVDVTENTRKVTHGCIVSTIKLFLPDGMEARLRSDVIHAPLPSPVDKVAANTPSMYSQELFQLSQYLQEALHREQMLEQKLATLQRLLAITQEASDTSWQALIDEDRLLSRLEVMGNQLQACSKNQTEDSLRKELIALQEDKHNYETTAKESLRRVLQEKIEVVRKLSEVERSLSNTEDECTHLKEMNERTQEELRELANKYNGAVNEIKDLSDKLKVAEGKQEEIQQKGQAEKKELQHKIDEMEEKEQELQAKIEALQADNDFTNERLTALQVRLEHLQEKTLKECSSLEHLLSKSGGDCTFIHQFIECQKKLIVEGHLTKAVEETKLSKENQTRAKESDFSDTLSPSKEKSSDDTTDAQMDEQDLNEPLAKVSLLKDDLQGAQSEIEAKQEIQHLRKELIEAQELARTSKQKCFELQALLEEERKAYRNQVEESTKQIQVLQAQLQRLHIDTENLREEKDSEITSTRDELLSARDEILLLHQAAAKVASERDTDIASLQEELKKVRAELERWRKAASEYEKEITSLQNSFQLRCQQCEDQQREEATRLQGELEKLRKEWNALETECHSLKRENVLLSSELQRQEKELHNSQKQSLELTSDLSILQMSRKELENQVGSLKEQHLRDSADLKTLLSKAENQAKDVQKEYEKTQTVLSELKLKFEMTEQEKQSITDELKQCKNNLKLLREKGNNKPWPWMPMLAALVAVTAIVLYVPGLARASP
For B1, the binding (FLAG-MST2 T180A (human)) was “no binding”, the binding (FLAG-MST2 3TA (human)) was “no binding” and the binding (FLAG-MST2 WT (human)) was “binds”. For the same molecule, the binding [1] was “no binding”.

B2: MST2-KD (MST2 kinase domain) (domain or fragment, UniProt Q13188 16-313)
chain: EDSLTKQPEEVFDVLEKLGEGSYGSVFKAIHKESGQVVAIKQVPVESDLQEIIKEISIMQQCDSPYVVKYYGSYFKNTDLWIVMEYCGAGSVSDIIRLRNKTLIEDEIATILKSTLKGLEYLHFMRKIHRDIKAGNILLNTEGHAKLADFGVAGQLTDTMAKRNTVIGTPFWMAPEVIQEIGYNCVADIWSLGITSIEMAEGKPPYADIHPMRAIFMIPTNPPPTFRKPELWSDDFTDFVKKCLVKNPEQRATATQLLQHPFIKNAKPVSILRDLITEAMEIKAKRHEEQQRELEEEE
B2 was tested, and the binding [2] was “no binding”.
